# Among all 52,000 compounds or so, about 1,700 (3.3%) were called active. Cut-off read from the data, not from the text of the source: active = survival mostly below about 52% (no sharp cut-off); inactive = mostly above about 56%. Some of the results follow.
# System: Wild type
# Experiment: S. aureus survival, RN4220 and DeltatarO strains – OD600, teichoic acid synthesis inhibitors, primary screen (AID 463173)
# Details: S. aureus RN4220 wild type/DeltatarO growth, OD600, 18 h, stronger effect = lower value, screened at 18.75 µg/mL (by protocol)
row,Structure (SMILES),survival
1,CC(C)CCNC(=O)c1cc(-c2ccc(Br)s2)nc2ccccc12,inactive: 91%
2,COc1ccc(-c2cc(C)no2)cc1S(=O)(=O)N1CCCC(C)C1 (configuration not stated),inactive: 81%
3,CCC(=O)N1CCc2cc(S(=O)(=O)NC(Cc3ccccc3)C(=O)NCc3ccccc3OC)ccc21 (configuration not stated),inactive: 74%
4,CC(C)(C)c1ccc(C(=O)Nc2ccc(NC(=O)c3ccc(Cl)c(Cl)c3)cc2)cc1,inactive: 152%
5,COc1cccc(NC(=O)Nc2ccc3snnc3c2)c1,inactive: 85%
6,COc1cc([N+](=O)[O-])ccc1NC(=O)N1CCC2(CC1)Nc1ccccc1-n1cccc12,inactive: 32%
7,COc1ccc2cc3cc(C(=O)N4CCN(c5cccc(C(F)(F)F)c5)CC4)sc3nc2c1,inactive: 113%
8,CCn1cc(C(=O)NCCN(CC(C)C)CC(C)C)c(=O)c2cc(S(=O)(=O)N(C)C3CCCCC3)ccc21,inactive: 87%
9,COc1ccc(-c2nc3sc(CCNC(=O)C(=O)Nc4cc(F)ccc4F)c(C)n3n2)cc1,inactive: 55%
10,COc1ccccc1CNc1nc2ccccc2c2nc(-c3cccc(C)c3)nn12,active: 9%
11,Cc1cccc(CCNC(=O)c2cc3c(=O)[nH]c4ccc(C)cc4c3s2)c1,inactive: 66%
12,COc1ccc(NC(=O)c2nnn(CC(=O)Nc3cccc(C)c3C)c2N)c(OC)c1,inactive: 47%
13,Cn1c(=O)n(C)c2cc(N3CCOCC3)c(NC(=O)c3ccc(C(C)(C)C)cc3)cc21,inactive: 75%
14,CCOCCCn1c(SCC(=O)NCc2ccccc2)nc2c(sc3ccccc32)c1=O,active: -6%
15,CC1CCN(c2ccc(C(=O)O)cc2)CC1,inactive: 107%
16,CCCCOc1ccccc1Cn1c(=O)sc2ccccc21,active: -4%
17,Cc1cccc(NC(=O)CN(C)S(=O)(=O)c2ccc3c(c2)CCC(=O)N3)c1C,inactive: 82%
18,Clc1cc2c(cc1C=Nc1ccc(N3CCOCC3)cc1)OCO2,inactive: 109%
19,CCOc1ccc(C(=O)Nc2cccc(NC(=O)c3ccc(Cl)cc3Cl)c2)cc1,inactive: 88%

row,Structure (SMILES),survival
1,CSc1ccc(CNC(=O)c2sc3ncnc(N(C)C4CCCCC4)c3c2C)cc1,inactive: 75%
2,Cc1cccc(C(=O)N2c3ncnn3C3(CCCCC3)[C@@H]3CCCC[C@@H]32)c1,inactive: 81%
3,Cc1ccc(Nc2nc3ccccc3nc2-n2nc(C)cc2C)c(Cl)c1,inactive: 88%
4,CCc1cccc(N2C(=O)CS(=O)(=O)C23C(=O)N(Cc2ccccc2)c2ccc(C)cc23)c1 (configuration not stated),inactive: 77%
5,Cc1c(C(=O)Nc2ccc(F)cc2)oc2ccc(S(=O)(=O)N3CCCCCC3)cc12,inactive: 95%
6,Cc1cccc(Nc2cc(C)nc(-n3nc(C)cc3C)n2)c1,inactive: 56%
7,CCOc1ccc(CN2C(=O)C(=O)c3cccc(C)c32)cc1OC,inactive: 91%
8,O=C(CSc1nnc(COc2ccc(F)cc2)o1)N1c2ccccc2CCc2ccccc21,inactive: 115%
9,CCOC(=O)c1cnc2ccccc2c1NCCCO,inactive: 113%
10,CCOC(=O)c1cccc(NS(=O)(=O)c2ccc(-c3coc(C)n3)cc2)c1,inactive: 99%
11,COc1ccc(-c2cc(C(F)(F)F)n3ncc(-c4ccccc4)c3n2)cc1,inactive: 65%
12,COC(=O)c1ccc2c(=O)n(CCc3ccc(S(N)(=O)=O)cc3)c(SCC(=O)C(C)(C)C)nc2c1,inactive: 59%
13,CCOc1ccc2nc(NCCCNS(=O)(=O)c3ccccc3)c(C#N)cc2c1,inactive: 120%
14,COc1cc2c(cc1NC(=O)COc1ccc(Br)cc1)oc1ccccc12,inactive: 86%
15,Cc1cc(C)c(NC(=O)C2CCN(C(=O)N3CCOc4ccccc43)CC2)c(C)c1,inactive: 94%
16,Cc1ccc(-c2c3c(=O)n(C)c(=O)n(C)c3c3cnc4ccccc4n23)cc1,inactive: 125%
17,Cc1ccc(S(=O)(=O)CC(=O)Nc2nc3c(C)cccc3s2)cc1,inactive: 75%
18,Cc1ccc(N2CCN(Cc3nnc(-c4ccccc4F)o3)CC2)c(C)c1,active: 15%
19,CSc1ccc(/C=C/c2nc3ccccc3n2S(=O)(=O)c2ccc(Br)cc2)cc1,inactive: 60%

row,Structure (SMILES),survival
1,CC(=O)N1CCc2cc(Br)cc(S(=O)(=O)NCCc3cccc(C)c3)c21,inactive: 78%
2,CS(=O)(=O)N(CC(=O)Nc1cccnc1)c1ccc(Cl)cc1,inactive: 85%
3,CCOC(=O)c1c(C)[nH]c(C)c1S(=O)(=O)N1CCCC(C(=O)Nc2cccc(CC)c2)C1 (configuration not stated),inactive: 87%
4,COc1cccc(NC(=O)/C(C#N)=C/c2c(C)n(Cc3ccccc3)c3ccccc23)c1,inactive: 80%
5,CCOc1ccc(NC(=O)CCc2c(C)nc3nc(-c4cc(OC)cc(OC)c4)nn3c2C)cc1,inactive: 88%
6,COc1ccc(-c2[nH]c3c(c2-c2c(-n4cccc4)n(C)c(=O)[nH]c2=O)c(=O)[nH]c(=O)n3C)cc1F,inactive: 84%
7,COc1ccccc1Nc1nc(N)nc(N)c1S(=O)(=O)c1ccccc1,inactive: 106%
8,COc1ccc(-n2nnc(-c3nsc(NC(=O)c4cccc(C)c4)n3)c2C)cc1OC,inactive: 78%
9,O=C(Nc1ccc(Cl)c(C(F)(F)F)c1)c1nc2ccccc2nc1N1CCCCC1,inactive: 99%
10,COc1cc(C(=O)OCn2c(=O)oc3ccccc32)cc(OC)c1OC,inactive: 101%
11,Fc1ccc(C(NCCc2ccc(Cl)cc2)c2nnc(-c3ccccc3Cl)o2)cc1 (configuration not stated),active: 11%
12,COCCCNc1nc(CC(C)C)nc2c1nnn2Cc1ccccc1,inactive: 109%
13,CSc1ncc(Cl)c(C(=O)N(C)c2ccccc2)n1,inactive: 111%
14,CCN1CCN(c2ncc3c(n2)CCN(Cc2cccc(F)c2F)C3)CC1,inactive: 56%
15,Cn1c(SCC(=O)Nc2nc3ccccc3s2)ncc(C(=O)Nc2ccc(Cl)cc2)c1=O,inactive: 77%
16,CCOCCCNC(=O)c1cn(CC(C)C)c(=O)c2c1c1ccccc1n2C,inactive: 87%
17,COc1cccc(NC(=O)Cn2nnc(C(=O)NCc3ccc4c(c3)OCO4)c2N)c1,inactive: 81%
18,N#CC(C#N)=Cc1ccc(-c2cccc(C(F)(F)F)c2)o1,inactive: 122%
19,COC(=O)c1ccccc1NC(=O)c1nn(C)c2c1COc1ccccc1-2,inactive: 89%
